# Results from PubChem BioAssay AID651820 (National Center for Advancing Translational Sciences (NCATS), 2012).
# Out of some 340,000 compounds screened, about 12,000 (3.5%) were called active. The inconclusive results got no clear call from the source; some entries with a clear call stand among them for comparison. Calls follow the shape of the dose curve; as a rule, active = well fitted inhibition curve with a large enough effect; inconclusive = small, poorly fitted or top-dose-only effect, or another doubt; inactive = no such curve, though single readings can be large or run the other way. No potency is given beside an inconclusive call; the fits are too rough.
# Experiment: qHTS Assay for Inhibitors of Hepatitis C Virus (HCV)
# Details: Huh7.5.1 HCVcc-Cre (HCVcc is cell-culture hepatitis C virus) infection, luciferase reporter, 44 h; activity change, negative = inhibition: at 41.8 µM (top of the series)
# Outline: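 Seed cells (1,000/well) for 4 h; treat with compound and infect with HCVcc-Cre, moi about 0.5. Incubate 44 h, then detect luciferase activity.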
# % is scaled to controls: 0 for no effect and ±100 for the full control effect; potency is read from the fitted curve at half-maximal effect; tags tell the direction and shape of the fitted curve.
Compound,Potency,"activity change, negative = inhibition"
COc1ccc(N2CCN(C(c3nnnn3C3CCCC3)C(C)C)CC2)cc1 (centres undefined),"inconclusive [inhibitor, single point]",–
CCCc1nc2ccccc2c(C(=O)OC(C)C(=O)NCc2ccc3c(c2)OCO3)c1CC (centres undefined),"inconclusive [inhibitor, full curve, poor fit]",–
NNC(=O)c1nc(-c2ccccc2)cc(-c2ccccc2)n1,–,inactive: 14.1%
CCOC(=O)C1(CCOc2ccccc2)CCN(Cc2ccccc2O)CC1,"inconclusive [inhibitor, single point]",–
CC1CC1C(=O)Nc1nc2ccc(Cl)cc2s1 (centres undefined),"inconclusive [inhibitor, single point]",–
O=C(CSc1c2c(nc3ccccc13)CCCC2)NCc1ccco1,"inconclusive [inhibitor, partial curve, poor fit]",–
CCOC(=O)[C@@H]1[C@H]2COc3ccc(Br)cc3[C@H]2N2C(=O)N(c3ccc(C(F)(F)F)cc3)C(=O)[C@]12C,–,inactive: -25.9%
CCc1ccc(NC(=S)N(CCCN2CCN(C)CC2)Cc2cccs2)cc1,"inconclusive [inhibitor, partial curve]",–
Cc1cc(C(=O)NNC(=O)c2ccc(Cl)cc2Cl)c(C)o1,–,inactive: -6.83%
COc1cccc(CCNS(=O)(=O)CCNC(=O)c2cccc(OC)c2)c1,–,inactive: -5.78%
CCN1CCN(C(=O)COc2ccc3oc4c(c3c2)CCCC4)CC1,"inconclusive [inhibitor, single point]",–
CCOc1cc(C)ccc1OCc1nnc(SCC(=O)c2cccc([N+](=O)[O-])c2)n1C,"inconclusive [inhibitor, single point]",–
COCCCn1c(-c2ccc(S(=O)(=O)N3CCOCC3)cc2)csc1=Nc1ccccc1,"inconclusive [inhibitor, partial curve, poor fit]",–
CCNC(=O)c1cc2c(=O)n3cccc(C)c3nc2n(Cc2ccc(C)cc2)c1=N,"inconclusive [inhibitor, partial curve]",–
CC1CC1C(=O)Nc1ccc(-c2ccccc2)cc1 (centres undefined),"inconclusive [inhibitor, partial curve]",–
CCN(CC)S(=O)(=O)c1ccc(Oc2ccc(S(=O)(=O)N(CC)CC)cc2)cc1,active: 2.82 µM,–
Nc1nnnn1/N=C/C(Br)=C/c1ccccc1,active: 10 µM,–
Cc1c(C=O)c2ccccn2c1C(=O)c1cccc([N+](=O)[O-])c1,"inconclusive [inhibitor, partial curve]",–
O=C(NCCCN1CCOCC1)c1cccc(NC(=O)c2ccccc2)c1,–,inactive: 12.2%
O=C(/C=C/c1ccccc1)NC(NC(=S)Nc1cccc(Cl)c1)C(Cl)(Cl)Cl (centres undefined),"inconclusive [inhibitor, single point]",–
CS(=O)(=O)N1CCC(C(=O)Nc2ccc(Oc3ccccc3)cc2)CC1,"inconclusive [inhibitor, partial curve]",–
CCOC(=O)[C@H]1[C@H]2COc3ccc(OC)cc3[C@@H]2N2C(=O)CN(Cc3ccc(Cl)cc3)C(=O)[C@@]12C,"inconclusive [inhibitor, partial curve, poor fit]",–
CCN1CCN(c2cc(N3CCCC3)c(F)cc2[N+](=O)[O-])CC1,"inconclusive [inhibitor, single point]",–

Compound,Potency,"activity change, negative = inhibition"
O=C(Nc1ccc(S(=O)(=O)N2CCOCC2)cc1)C1CCCCC1,–,inactive: -4.13%
COc1ccc(NC(=O)COC(=O)c2c3c(nc4ccccc24)CCCC3)cc1,"inconclusive [inhibitor, partial curve, poor fit]",–
COc1cc(NC(=O)C/C(C)=N/NC(=O)Cc2ccccc2)c(OC)cc1Cl,–,inactive: -18.4%
Cc1ccc(NC(=O)C(=O)NCc2ccc(/C=C(/C#N)C(=O)NCc3cccnc3)o2)cc1C,"inconclusive [inhibitor, partial curve, poor fit]",–
CC(=O)c1ccc(NCCC(=O)c2ccccc2)cc1,–,inactive: 7.49%
C=CCNC(=O)c1ccccc1NC(=O)c1ccc(Cl)c(S(=O)(=O)Nc2cccc(C)c2C)c1,"inconclusive [inhibitor, single point]",–
CC(=O)c1ccc(NC(=S)NCc2ccc(Cl)cc2Cl)cc1,"inconclusive [inhibitor, single point]",–
CC(C)CN(C(=O)COC(=O)c1ccc(-c2ccccc2)cc1)C1CCS(=O)(=O)C1 (centres undefined),–,inactive: -21.4%
CCOc1ccc(NC(=O)c2ccc(Cn3nc(C)cc3C)o2)cc1,"inconclusive [inhibitor, partial curve]",–
Cc1cc(NC(=O)CCCC(=O)NCc2ccccc2)no1,"inconclusive [inhibitor, single point]",–
CC(C)CCOc1ccc(-c2c(=O)n(OCc3ccc([N+](=O)[O-])cc3)c3ccccc3[n+]2[O-])cc1,"inconclusive [inhibitor, single point]",–
O=S1(=O)CCC(NC(=S)Nc2ccc(Cl)cc2)C1 (centres undefined),–,inactive: 5.18%
COc1ccc(N2CCN(C(=O)NCc3ccc(OC)c(OC)c3)CC2)cc1,–,inactive: 7.36%
CC(=O)/C=C/c1ccc2ccccc2n1,"inconclusive [inhibitor, single point]",–
O=C(Nc1ccc(Nc2ccccc2)cc1)C(Cl)Cl,"inconclusive [inhibitor, partial curve]",–
Oc1ccccc1C1=Nc2ncnn2C(c2ccccc2)C1 (centres undefined),"inconclusive [inhibitor, partial curve]",–
CCOc1c2ccc(C(=O)NCc3ccccc3OC)cc2nn1CC,"inconclusive [inhibitor, partial curve]",–
COc1ccc2c(c1)c(/C=N/Nc1nc3ccccc3[nH]1)c(C)n2C,"inconclusive [inhibitor, full curve, poor fit]",–
Nc1ccc(Oc2ccc3c(c2)C(=O)NC3=O)cc1,–,inactive: 3.34%
CS(=O)(=O)N(CCc1ccccc1)CC(=O)N1CCc2ccccc2C1,–,inactive: 7.29%
COc1ccc(CC(=O)Nc2cc(S(=O)(=O)N3CCCCC3)ccc2C)cc1OC,active: 10 µM,–
COC(=O)c1ccc(-n2nnnc2SCc2ccccc2OC)cc1,"inconclusive [inhibitor, single point]",–
O=C(Cc1ccc(Br)cc1)NCCc1ccc(Cl)cc1Cl,"inconclusive [inhibitor, single point]",–

Compound,Potency,"activity change, negative = inhibition"
CN(CCOc1ccccc1)CC(=O)Nc1cccc(Br)c1,"inconclusive [inhibitor, single point]",–
CCOC(=O)c1nn(-c2cccc(OC)c2)c(-c2ccccc2)c1C(=O)c1ccccc1,"inconclusive [inhibitor, partial curve]",–
Cc1ccc(C)c(NC(=S)N2CCC(c3nc4ccccc4s3)CC2)c1,"inconclusive [inhibitor, single point]",–
CC(=O)n1cc(/C=N/NC(=O)c2ccccc2Cl)c2ccccc21,"inconclusive [inhibitor, single point]",–
COc1ccc(NC(=O)CN(C)C2CCCCC2)c([N+](=O)[O-])c1,–,inactive: 9.38%
Cc1nn(CCCC(=O)NCCc2ccccc2)c(=O)c2nn(-c3ccccc3)c(C)c12,–,inactive: -5.78%
COC(=O)CN1C(=O)[C@H]2[C@@H](c3ccc(C)o3)N3C(=O)CN(CC4CC4)C(=O)[C@@]3(C)[C@H]2C1=O,–,inactive: 16.1%
COC(=O)CNC(=O)c1ccccc1,–,inactive: 7.03%
CC1=CC(C)(C)Nc2ccc(OC(=O)c3cccnc3)cc21,"inconclusive [inhibitor, single point]",–
Cc1nc2c(c(-c3ccccc3)c1C#N)C(=O)c1ccccc1-2,"inconclusive [inhibitor, single point]",–
O=C(O)CCC(=O)OCCN(Cc1ccc(Oc2ccc([N+](=O)[O-])cc2)cc1)C(=O)C(Cl)Cl,"inconclusive [inhibitor, full curve, poor fit]",–
Cc1ccc(-c2csc(NC(=O)c3ccc([N+](=O)[O-])o3)n2)cc1,active: 14.1 µM,–
COC(=O)C1=C(c2cc3ccccc3s2)C[C@@H]2CC[C@H]1N2C(=O)N1CCC(C)CC1,"inconclusive [inhibitor, single point]",–
COc1ccc(OC)c(-c2cc(C(=O)Nc3c(C)nn(Cc4ccccc4C)c3C)no2)c1,active: 3.16 µM,–
NC(=O)c1nsc(C(=O)N(c2ccc(Cl)cc2)C(C(=O)NCC2CCCO2)c2cccs2)c1N (centres undefined),–,inactive: 5.38%
Cc1cc(S(=O)(=O)Nc2cccc(O)c2)c(C)s1,–,inactive: -12.9%
O=C1NC(=Nc2ccccc2)S/C1=C\C=C\c1ccco1,"inconclusive [inhibitor, single point]",–
CCOC(=O)c1c(NC(=O)CNCC(O)CO)sc(C)c1C (centres undefined),"inconclusive [inhibitor, single point]",–
COc1ccc2c(c1)[nH]c1c(=O)n(/N=C/C3C(C)C=C(C)CC3C)c(=O)[nH]c12 (centres undefined),–,inactive: -0.0784%
Cc1ccc(O)c(C(=O)C=Cc2ccccc2)c1,"inconclusive [inhibitor, single point]",–
COc1ccc(C)cc1NC(=O)CCCN1C(=O)CN(C)C1=O,"inconclusive [inhibitor, partial curve, poor fit]",–
Cc1nn(-c2ccccc2)c(C)c1C(=O)OCC(=O)N1c2ccccc2NC(=O)C1(C)C,"inconclusive [inhibitor, partial curve]",–
COc1ccc(C(=O)Nc2ccc(N3CCOCC3)cc2)cc1S(=O)(=O)NC1CCCC1,"inconclusive [inhibitor, single point]",–
